# According to PubChem BioAssay AID445 (National Center for Advancing Translational Sciences (NCATS), 2006):
# Screen size: about 110,000 compounds; about 40 (0.04%) were called active. Inconclusive means that the source gave no clear call. Such entries were picked first, then a sample of the others. Calls follow the shape of the dose curve; as a rule, active = well fitted curve in the direction sought with a large enough effect in the signal ratio (not every such curve was filed as active); inconclusive = small, poorly fitted or top-dose-only effect, or a change in a side signal; inactive = flat fitted curve, though single readings scatter; the % refers to the signal ratio. Potencies beside an inconclusive call are fits to weak or partial responses and may not hold up.
# Assay: IkB Signaling;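 as to IkBa stabilization activation: 0% = basal untreated cells and 100% = reference inhibitor full response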
# Settings: ABC-DLBCL IkBa-CBG/CBR dual luciferase ratio (green luciferase fused to IkBa over red control in OCI-Ly3 lymphoma cells), 4 h, scaled: untreated 0%
# In short: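 Luminescence ratio of IκBα-fused green versus native red beetle luciferase in OCI-Ly3 cells, 4 h post-doxycycline with compound; red signal alone, scaled from basal (0%) to zero light (-100%), flagged nonspecific or cytotoxic effects.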
# [1] = IkBa stabilization activation: at 57.1 µM (top of the series), proteasome inhibitor 100% unless noted
# Potency is read from the fitted curve at half-maximal effect.
smiles,measurement,setting,value
[Cu].[O-]/N=C1/C(=[OH+])Nc2ccccc21.[O-]Nc1c(O)[nH]c2ccccc12,IkBa stabilization activation,[1],"inactive: -0.303% [at 11.4 µM, scaled: untreated 0%, proteasome inhibitor 100%]"
CCNc1nc(NC#N)nc(SCC(=O)OCC)n1,IkBa stabilization activation,[1],inactive
COc1ccccc1NC(=O)C(=O)NCC(c1ccc2c(c1)OCO2)N1CCOCC1 (centres undefined),IkBa stabilization activation,[1],inconclusive: 11.1% [signal inhibitor]
Cc1onc(-c2ccccc2Cl)c1C(=O)Nc1cccc2cccnc12,IkBa stabilization activation,[1],inconclusive: -2.15% [signal inhibitor]
COc1ccc(CN(Cc2cc3cc4c(cc3[nH]c2=O)OCO4)C(=O)NC2CCCCC2)cc1,IkBa stabilization activation,[1],inactive
COc1ccccc1/C=C/c1nc2ccccc2n1C(C)C,IkBa stabilization activation,[1],inactive
COc1ccc(Cl)cc1NC(=O)Cc1ccc(NC(=O)N2CCCCc3ccccc32)cc1,IkBa stabilization activation,[1],inconclusive: 2.46% [signal inhibitor]
CCn1nnc(NC(=O)c2ccccc2Br)n1,IkBa stabilization activation,[1],inactive
Cc1ccccc1OCc1nc2ccccc2c(=O)n1/N=C/c1ccco1,IkBa stabilization activation,[1],inconclusive: 3.86% [signal inhibitor]
Cc1ccc(CN2CCSc3ccc(C(=O)N4CCN(c5ccccc5)CC4)cc32)cc1,IkBa stabilization activation,[1],inconclusive: 1.06% [signal inhibitor]
O=C(CC1N=C2c3ccccc3N=C(SCc3ccc(Cl)cc3)N2C1=O)NCc1cccs1 (centres undefined),IkBa stabilization activation,[1],inconclusive: 0.935% [signal inhibitor]
CCOC(=O)c1c(NC(=O)Cc2cccs2)sc2c1CCCC2,IkBa stabilization activation,[1],inactive
Cc1ccc(-n2c(Cc3ccccc3)nnc2SCc2nc(-c3cccs3)no2)cc1,IkBa stabilization activation,[1],inconclusive: 1.84% [signal inhibitor]
O=c1oc(-c2cccs2)nc2scc(-c3cccs3)c12,IkBa stabilization activation,[1],inconclusive: 18.1% [signal inhibitor]
Cc1ccc(/C=C/c2onc(C)c2S(=O)(=O)N2CCC(C(=O)N3CCC(N(C)C(C)C)CC3)CC2)cc1,IkBa stabilization activation,[1],inactive
Cc1ccc(C)c(N2CCN(C(=O)c3ccc(NC(=O)c4nsc5ccccc45)cc3)CC2)c1,Potency,[1],"inconclusive: 3.16 µM [signal inhibitor, full curve]"
COc1cc(C(=O)Oc2c(Sc3ccccc3)c(C)nn2-c2ccccc2)cc(OC)c1OC,IkBa stabilization activation,[1],inconclusive: 3.76% [signal inhibitor]
Cc1ccc(/C=C/c2onc(C)c2S(=O)(=O)N2CCC(C(=O)Nc3ccc(C)c(N(C)C)c3)CC2)cc1,IkBa stabilization activation,[1],inconclusive: 1.86% [signal inhibitor]
CCCNC(=O)c1c(N)n(-c2ccc3c(c2)OCO3)c2nc3ccccc3nc12,IkBa stabilization activation,[1],inactive
Cc1ccc(CNC(=O)CCCCCn2c(=O)[nH]c3ccccc3c2=O)cc1,IkBa stabilization activation,[1],inconclusive: -1.23% [signal inhibitor]
Cc1nn(-c2ccccc2)c(OC(=O)C(C)C)c1Sc1ccc(Cl)cc1,IkBa stabilization activation,[1],inconclusive: 8.89% [signal inhibitor]
CC1CCCN(CCCNC(=O)c2ccc3c(c2)N(Cc2ccccc2F)C(=O)c2ccccc2S3(=O)=O)C1 (centres undefined),IkBa stabilization activation,[1],inconclusive: 0.849% [signal inhibitor]
Cc1nc2cnc(N3CCNCC3)nc2n(CCC#N)c1=O,IkBa stabilization activation,[1],"inactive: 1.96% [at 11.4 µM, scaled: untreated 0%, proteasome inhibitor 100%]"
Oc1c(CN2CCCCC2)cc(Br)c2cccnc12,Potency,[1],"inconclusive: 25.1 µM [rising, partial curve]"
Cc1ccccc1-c1nc(CN2CCC(C(=O)NCc3ccccc3Cl)CC2)c(C)o1,IkBa stabilization activation,[1],inconclusive: 1.75% [signal inhibitor]
O=C(O)c1ccc(Nc2ccnc3cc(Cl)ccc23)cc1O,IkBa stabilization activation,[1],"inactive: 1.13% [at 11.4 µM, scaled: untreated 0%, proteasome inhibitor 100%]"
CC(C)(C)c1ccc(NC(=O)C2CCCN(c3cnccn3)C2)cc1 (centres undefined),IkBa stabilization activation,[1],inconclusive: -0.659% [signal inhibitor]
CCOc1ccc(N2CC(NC(=O)CCc3ccccc3)CC2=O)cc1 (centres undefined),IkBa stabilization activation,[1],inconclusive: 0.00336% [signal inhibitor]
CCn1c(C)c(C2N3CC4(C)CN2CC(C)(C3)C4=O)c2ccccc21 (centres undefined),IkBa stabilization activation,[1],inconclusive: 1.36% [signal inhibitor]
COc1ccc(-c2cn3cc(C)ccc3n2)cc1OC,IkBa stabilization activation,[1],inactive
O=C(CC(Sc1ccccc1)c1cccs1)c1ccco1 (centres undefined),IkBa stabilization activation,[1],inconclusive: 5.53% [signal activator]
CCC(OC(=O)c1cc2sccc2n1C)C(=O)NCC1CCCO1 (centres undefined),IkBa stabilization activation,[1],inconclusive: 2.58% [signal inhibitor]
Cc1nc(C)c(-c2ccc(SCC(=O)Nc3ccc(Br)cc3)nn2)s1,IkBa stabilization activation,[1],inconclusive: 0.178% [signal inhibitor]
CC(C)C(NC(=O)OCc1ccccc1)C(=O)NCC(=O)OC(C)(C)C (centres undefined),IkBa stabilization activation,[1],inactive
Cc1ccc2[nH]c3c(c2c1)CN(C(=O)CN1CCN(Cc2ccc4c(c2)OCO4)CC1)CC3,IkBa stabilization activation,[1],inconclusive: 6.52% [signal inhibitor]
CN(c1ccc(C(=O)Nc2nccs2)cc1)S(=O)(=O)c1ccccc1,IkBa stabilization activation,[1],inconclusive: 2.14% [signal inhibitor]
CCOC(=O)C1CCCN(C(=O)c2cc3c(=O)[nH]c4ccc(C)cc4c3s2)C1 (centres undefined),IkBa stabilization activation,[1],inconclusive: 1.2% [signal inhibitor]
CN(Cc1ccccc1)S(=O)(=O)c1cc(Br)cc2c1N(C(=O)C1CC1)CC2,IkBa stabilization activation,[1],inconclusive: 3.56% [signal inhibitor]
CCC(C(=O)Nc1c(C)cc(C)cc1C)n1c(=O)c(-c2ccccc2NC(C)=O)nc2ccccc21 (centres undefined),IkBa stabilization activation,[1],inactive
CCN(CCCNC(=O)CN1N=C(c2ccc(OC)cc2)CCC1=O)c1cccc(C)c1,IkBa stabilization activation,[1],inconclusive: -0.138% [signal inhibitor]
COc1ccc(NC(=O)CSc2nnc(NC(=O)Nc3ccc(OC)cc3)s2)cc1,IkBa stabilization activation,[1],inactive
CCCCN(C)CCCNC(=O)c1cc(-c2ccc(Br)s2)nc2ccccc12,IkBa stabilization activation,[1],inactive
CN(C)CC(CN(C)C)c1ccccn1,IkBa stabilization activation,[1],"inactive: -0.347% [at 11.4 µM, scaled: untreated 0%, proteasome inhibitor 100%]"
CCOc1ccc(CCNC(=O)CCCn2nc(C)c3sc4ccccc4c3c2=O)cc1,IkBa stabilization activation,[1],inactive
Cc1cccc(N2CCN(C(=O)c3cn(CC(C)C)c(=O)c4c3c3ccccc3n4C)CC2)c1C,Potency,[1],inconclusive: 39.8 µM [signal inhibitor]
COc1cccc(N2CC(NC(=O)CCCc3ccccc3)CC2=O)c1 (centres undefined),IkBa stabilization activation,[1],inactive
Cc1ccc(-c2noc(CNC(=O)c3ccc(Br)o3)n2)cc1,IkBa stabilization activation,[1],inconclusive: -2.62% [signal inhibitor]
CC(=O)c1cccc(NC(=O)c2cc(-c3ccc(Cl)s3)nc3ccccc23)c1,IkBa stabilization activation,[1],inconclusive: 1.8% [signal inhibitor]
COc1ccc(NC(=O)CC2C(=O)N(c3cccc(C)c3)C(=O)N2C2CCCCC2)cc1 (centres undefined),IkBa stabilization activation,[1],inconclusive: 1.57% [signal inhibitor]
c1nc(N2CCOCC2)c2c3c(sc2n1)CCCC3,IkBa stabilization activation,[1],inconclusive: 1.16% [signal inhibitor]
COc1cccc(C(=O)Nc2ccc(-c3cc(C(F)(F)F)nn3-c3ccccc3)cc2)c1,IkBa stabilization activation,[1],inconclusive: 1.69% [signal inhibitor]
CC(C)N(C(=O)CSc1nnc(-c2cc3ccccc3cc2O)n1Cc1ccco1)C(C)C,IkBa stabilization activation,[1],inconclusive: 5.01% [signal inhibitor]
CCOc1ccccc1CNS(=O)(=O)c1ccc2[nH]c(=O)ccc2c1,IkBa stabilization activation,[1],inconclusive: 0.259% [signal inhibitor]
Cc1ccc(C)c(Cn2c(-c3cccs3)nc3ccccc32)c1,IkBa stabilization activation,[1],inactive
Cc1ccc(C)c(CN2C(=O)N(c3cc(Cl)ccc3C)S(=O)(=O)c3ccccc32)c1,IkBa stabilization activation,[1],inconclusive: 2.36% [signal inhibitor]
O=C(Nc1nc2ccccc2n1CCN1CCOCC1)c1cn(-c2ccccc2)nc1-c1ccccc1,Potency,[1],"inconclusive: 10 µM [signal inhibitor, partial curve]"
COc1ccccc1N1CCN(C(=O)Cn2cnc3onc(-c4ccc(F)cc4)c3c2=O)CC1,IkBa stabilization activation,[1],inconclusive: -0.536% [signal inhibitor]
O=C(c1ccc2c(=O)n(CCc3ccccc3)c(=O)[nH]c2c1)N1CCN(c2ccc(F)cc2)CC1,IkBa stabilization activation,[1],inconclusive: 6.03% [signal inhibitor]
CCOc1ccccc1NC(=O)Cn1cnc2c(cnn2-c2ccc(C)c(C)c2)c1=O,IkBa stabilization activation,[1],inactive
CCOC(=O)CSc1nc2sc3c(c2c(=O)[nH]1)CCCC3,IkBa stabilization activation,[1],inconclusive: 3.6% [signal activator]
CCn1c(=O)[nH]c2cc(Cl)c(Cl)cc21,IkBa stabilization activation,[1],inconclusive: 3.85% [signal inhibitor]
same,IkBa stabilization activation,"at 57.1 µM (top of the series), proteasome inhibitor 100%",inactive: -10.9%
N#C/C(=C\c1ccc(Cl)cc1Cl)c1nc(-c2cccc(Cl)c2)cs1,IkBa stabilization activation,[1],inactive
CCOc1ccccc1N(CC(=O)NCCSc1ccccc1)S(=O)(=O)c1ccccc1,IkBa stabilization activation,[1],inconclusive: 3.22% [signal inhibitor]
COc1ccccc1Cc1nc2ccccc2nc1SCC(=O)N(C)c1ccc(F)cc1,IkBa stabilization activation,[1],inconclusive: -0.212% [signal inhibitor]
Cc1nnc(N2CCC(C(=O)NCCc3ccccc3Cl)CC2)c2nn(-c3ccccc3)c(C)c12,IkBa stabilization activation,[1],inconclusive: -0.679% [signal inhibitor]
COC(=O)c1sccc1NC(=O)c1cc2c(s1)CCCC2,IkBa stabilization activation,[1],inconclusive: 3.81% [signal inhibitor]
Cc1cccc(N2CCN(C(=O)Nc3cn(CC(C)C)c(=O)c4ccccc34)CC2)c1C,IkBa stabilization activation,[1],inconclusive: -2.34% [signal inhibitor]
CCOC(=O)N1CCN(c2c(F)cc3[nH]c(=S)[nH]c3c2Br)CC1,IkBa stabilization activation,[1],inconclusive: -11.1% [signal inhibitor]
